Test results as given in the GPR68 mutational scans of Howard et al. (2025).

B1: GPR68, Q15743 (parent)
chain: MGNITADNSSMSCTIDHTIHQTLAPVVYVTVLVVGFPANCLSLYFGYLQIKARNELGVYLCNLTVADLFYICSLPFWLQYVLQHDNWSHGDLSCQVCGILLYENIYISVGFLCCISVDRYLAVAHPFRFHQFRTLKAAVGVSVVIWAKELLTSIYFLMHEEVIEDENQHRVCFEHYPIQAWQRAINYYRFLVGFLFPICLLLASYQGILRAVRRSHGTQKSRKDQIQRLVLSTVVIFLACFLPYHVLLLVRSVWEASCDFAKGVFNAYHFSLLLTSFNCVADPVLYCFVSETTHRDLARLRGACLAFLTCSRTGRAREAYPLGAPEASGKSGAQGEEPELLTKLHPAFQTPNSPGSGGFPTGRLA

Legend:
[1] = variants of: B1; assay: cAMP reporter score (Enrich2 score, wild type = 0); higher = more signal; HEK293T, FACS bins
[2] = variants of: B1; assay: surface expression score (Enrich2 score, wild type = 0); higher = more signal; HEK293T, FACS bins

Row | Variant | cAMP reporter score ([1]; pH 5.5) | cAMP reporter score ([1]; pH 6) | cAMP reporter score ([1]; pH 6, modulator: ogerin) | cAMP reporter score ([1]; pH 6.5, modulator: ogerin) | surface expression score [2]
1 | L48del | -2.37 | -1.41 | -1.93 | -1.67 | -2.91
2 | I50D | -0.233 | – | – | -0.896 | –
3 | I50G | -1.74 | -0.775 | – | -1.67 | -2.27
4 | I50W | 0.343 | 0.548 | -0.071 | -0.63 | -1.9
5 | I50A | 0.742 | -0.055 | -0.356 | -0.319 | -2.08
6 | I50P | -2.47 | -1.9 | -2.02 | -1.2 | -2.89
7 | I50K | -1.33 | -0.596 | -1.87 | -0.733 | -2.71
8 | I50N | -1.16 | -1.43 | -1.72 | -0.691 | -2.19
9 | I50T | -0.687 | -0.182 | -0.811 | -0.864 | -0.795
10 | I50E | -0.661 | 0.165 | -0.615 | – | –
11 | I50V | 0.477 | 0.004 | 0.136 | -0.406 | -0.235
12 | I50R | -0.909 | -1.04 | -1.62 | 1.22 | -2.37
13 | I50L | -0.451 | -0.583 | 0.168 | -0.687 | -0.777
14 | I50S | -1.48 | -0.375 | -1.48 | -1.26 | -2.23
15 | I50M | 0.009 | -0.498 | -0.22 | -0.788 | -0.753
16 | I50C | 0.057 | -0.929 | -0.638 | -0.888 | -1.46
17 | I50H | -1.5 | -0.724 | -1.64 | -0.723 | -2.36
18 | I50Y | 0.126 | -1.17 | -0.646 | -0.849 | -1.94
19 | I50Q | -1.03 | – | -0.946 | -0.685 | -2.23
20 | I50F | -1.15 | -1.4 | -1.22 | -1.64 | -2.93
21 | L48_I50del | -1.1 | -0.483 | -1.06 | -2.33 | -1.81
22 | L48S | 0.118 | -1.5 | -0.337 | -1.26 | -1.71

Row | Variant | cAMP reporter score ([1]; pH 5.5) | cAMP reporter score ([1]; pH 6) | cAMP reporter score ([1]; pH 6, modulator: ogerin) | cAMP reporter score ([1]; pH 6.5, modulator: ogerin) | surface expression score [2]
23 | L48R | 2.52 | -0.375 | -0.181 | – | -0.407
24 | L48W | -0.282 | -1.32 | -0.992 | -0.304 | -0.466
25 | L48H | -0.715 | -1.16 | -1.21 | – | -0.974
26 | L48V | -1.01 | – | -0.744 | -1.43 | -1.17
27 | L48D | -1.37 | -0.728 | -1.14 | -0.86 | -2.48
28 | L48Q | 0.352 | -0.061 | 0.4 | -0.285 | -0.861
29 | L48C | -0.123 | – | 0.055 | -0.145 | -0.693
30 | L48G | -0.342 | – | -0.602 | -1.17 | -0.857
31 | L48F | -1.12 | – | -0.175 | -1.16 | -1.87
32 | L48I | -0.591 | -0.556 | – | -1.02 | -0.359
33 | L48N | 0.171 | -0.821 | -0.051 | -0.164 | -1.28
34 | L48K | 0.727 | – | 0.892 | 0.066 | 0.102
35 | L48P | -0.853 | 0.453 | -1.32 | -0.424 | -2.31
36 | L48Y | -1.35 | -1.26 | -1.41 | -1.23 | -2.13
37 | L48M | -0.15 | -0.531 | 0.204 | 1.43 | 0.058
38 | L48T | 0.213 | -0.056 | 0.616 | -0.578 | -1.62
39 | L48E | -0.167 | -0.171 | -0.916 | -0.831 | -1.51
40 | L48A | -0.459 | -1.1 | -1.2 | -1.43 | -2.18
41 | I50_K51insGSG | -1.52 | -1.5 | -1.72 | -1.2 | -2.21
42 | R53_N54insG | -0.079 | -1.4 | -0.536 | -0.918 | -2.34
43 | G46Y | -0.164 | -0.834 | -0.368 | -1.16 | -1.33
44 | I50_K51del | -1.52 | – | -0.862 | -0.606 | -1.37

Row | Variant | cAMP reporter score ([1]; pH 5.5) | cAMP reporter score ([1]; pH 6) | cAMP reporter score ([1]; pH 6, modulator: ogerin) | cAMP reporter score ([1]; pH 6.5, modulator: ogerin) | surface expression score [2]
45 | N54_E55insGS | 0.317 | – | -2.17 | -1.88 | -1.05
46 | A52_R53insGSG | -0.961 | -1.23 | -1.57 | -0.94 | -1.73
47 | N54_E55insG | -0.961 | -1.15 | -0.598 | -0.815 | -1.63
48 | Y47_Q49del | -1.31 | -1.02 | – | -1.5 | -2.88
49 | I50_K51insGS | -1.97 | -1.4 | -1.47 | -0.712 | -2.58
50 | L48_Q49del | -1.73 | -0.838 | -1.62 | – | -1.64
51 | E55A | -0.406 | -0.157 | -0.444 | -0.517 | 2.41
52 | E55F | -1.32 | -0.505 | -1.56 | -1.02 | 0.533
53 | E55G | -0.791 | -0.535 | -0.528 | -1.18 | 1.58
54 | E55D | 0.502 | – | 0.281 | 2.46 | -1.56
55 | E55H | -1.12 | -1.04 | -1.24 | -1.44 | 0.554
56 | E55C | -0.677 | – | -1.46 | -1.31 | 1.48
57 | G46_Y47del | -0.785 | -1.04 | -1.45 | -1.35 | -2.61
58 | Q49_I50insGS | -1.26 | -0.949 | -0.548 | -1.31 | -2.51
59 | A52del | -1.3 | – | – | 0.334 | -1.7
60 | Q49_K51del | -1.78 | -1.39 | -1.8 | -1.25 | -2.62
61 | N54_L56del | -1.38 | -1.47 | -2.81 | -0.614 | -2.54
62 | A52_N54del | -0.907 | -0.989 | -1.17 | -1.36 | -2.44
63 | Y47_L48del | -1.34 | -1.85 | -1.22 | -1.55 | –
64 | Q49_I50del | -2.01 | -0.173 | -1.79 | -1.13 | -1.77

Scores whose standard error is large were omitted. Not listed are two conditions whose scores span a narrow range. In variant names, del marks residues removed and ins residues inserted between the two positions. For some assays here: The concentration of ogerin is not given here.
